Experimental data: PubChem BioAssay AID445 (National Center for Advancing Translational Sciences (NCATS), 2006)
The campaign covered roughly 110,000 compounds. About 40 (0.04%) were called active. This list was built around the results that the source calls inconclusive (neither active nor inactive); the mix of calls is not that of the screen. Calls come from the whole dose curve; as a rule, active = well fitted curve in the direction sought with a large enough effect in the signal ratio (not every such curve was filed as active); inconclusive = small, poorly fitted or top-dose-only effect, or a change in a side signal; inactive = flat fitted curve, though single readings scatter; the % refers to the signal ratio. Potencies of inconclusive entries are doubtful fits and often do not repeat.

Experiment: IkB Signaling;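 for IkBa stabilization activation: 0% = basal untreated cells and 100% = reference inhibitor full response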
Details: ABC-DLBCL IkBa-CBG/CBR dual luciferase ratio (green luciferase fused to IkBa over red control in OCI-Ly3 lymphoma cells), 4 h; IkBa stabilization activation: at 57.1 µM (top of the series), scaled: untreated 0%, proteasome inhibitor 100% unless noted
How it was run: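 Luminescence ratio of IκBα-fused green versus native red beetle luciferase in OCI-Ly3 cells, 4 h post-doxycycline with compound; red signal alone, scaled from basal (0%) to zero light (-100%), flagged nonspecific or cytotoxic effects.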
Potency is the fitted concentration of half-maximal effect.

SMILES	IkBa stabilization activation	Potency
CCc1ccc(NC(=O)C(Cc2ccccc2)NS(=O)(=O)c2ccc3c(c2)CCN3C(C)=O)cc1 (stereo not given)	inconclusive: 2.54% [signal inhibitor]	
C#CCOc1ccc(C2C(C(=O)OC)=C(C)NC3=C2C(=O)c2ccccc23)cc1OCC (stereo not given)	inconclusive: -0.00936% [signal inhibitor]	
CCOc1ccc(Sc2cc(C(=O)NCCCOC)c3ccccc3n2)cc1	inconclusive: 1.18% [signal inhibitor]	
Clc1ccc(CCNc2ncnc3nc[nH]c23)cc1		inconclusive: 31.6 µM [signal inhibitor, partial curve]
CCOc1ccc(NC(=O)CSc2nnc(CC)c(CC)n2)cc1	inconclusive: -1.17% [signal inhibitor]	
Cc1ccc2c(c1)-c1c(cnn1CC(=O)Nc1ccccc1N1CCN(C)CC1)CO2	inconclusive: 2.06% [signal inhibitor]	
Cc1nc2cnc(N(C)C)nc2n(-c2ccccc2)c1=O	inactive: 1.78% [at 11.4 µM, scaled: untreated 0%, proteasome inhibitor 100%]	
Cc1cccc(C)c1NC(=O)C1CCCN(S(=O)(=O)c2c(C)noc2/C=C/N(C)C)C1 (stereo not given)	inconclusive: 4.1% [signal inhibitor]	
COc1ccccc1CNC(=O)c1ccc(NC(=O)N2CC(C)Sc3ccccc32)cc1 (stereo not given)	inconclusive: 3.84% [signal inhibitor]	
COc1ccc(S(=O)(=O)NCC(c2ccco2)S(=O)(=O)c2ccc(C)cc2)cc1C (stereo not given)	inconclusive: 2.61% [signal inhibitor]	
CCN(CC)c1ccc2cc(-c3nc4ccccc4n3C)c(=O)oc2c1	inactive: 1.2%	
O=c1c2ccccc2nc(SCc2nnc(-c3ccccc3Br)o2)n1-c1ccccc1	inactive: 0.69%	
Fc1ccc(-n2ncc3c(NCCCN4CCOCC4)ncnc32)cc1	inactive: 0.145%	
Cc1nn2c(c1-c1ccccc1)N=C(c1ccco1)CC2c1ccccc1 (stereo not given)		inconclusive: 15.8 µM [signal inhibitor, partial curve]
COc1ccccc1NCCC(=O)OCC(=O)NCc1ccco1	inactive: 6.9%	
O=C(Nc1ccc2nc(SCC(=O)N3CCCc4ccccc43)sc2c1)c1cccc(F)c1	inconclusive: 0.507% [signal inhibitor]	
COCCNc1nc(-c2ccc(C(=O)N(C)C)cc2)nc2ccccc12	inactive: -0.54% [at 11.4 µM, scaled: untreated 0%, proteasome inhibitor 100%]	
COc1cccc(CNC(=O)c2ccc(CSc3nc4ccncc4n3Cc3cccc(C)c3)cc2)c1	inconclusive: 1.58% [signal inhibitor]	
Cc1ccc(Cl)cc1N1CCN(S(=O)(=O)c2ccc3[nH]c4c(c3c2)CCCCC4)CC1	inconclusive: 6.98% [signal inhibitor]	
Cc1cccn2cc(-c3ccc(F)cc3)nc12	inactive: 4.97%	
Cc1cccc(CSc2ncc(CO)n2Cc2ccc(F)cc2)c1	inconclusive: 0.561% [signal inhibitor]	
O=C(NC1CCCCCC1)c1ccc(N2CCCC2=O)cc1		inconclusive: 20 µM [signal inhibitor, partial curve]

SMILES	IkBa stabilization activation	Potency
NC(=O)c1ncn([C@@H]2O[C@@H](CO)[C@@H](O)[C@H]2O)n1	inactive: 8.13%	
COCCn1c(SCC(=O)Nc2ncc(C)s2)nc2sc3c(c2c1=O)CCC3	inconclusive: 3.64% [signal inhibitor]	
COc1cccc(N2CCN(S(=O)(=O)c3cc(Br)cc4c3N(C(=O)C3CC3)CC4)CC2)c1	inconclusive: 2.13% [signal inhibitor]	
Cc1cccc(N2C(=O)CSC23C(=O)N(Cc2cccc(F)c2)c2ccccc23)c1 (stereo not given)	inconclusive: 2.69% [signal inhibitor]	
O=c1[nH]c(SCCOc2ccccc2)nc2ccccc12	inactive: 0.201%	
CN1CCN(C(CNC(=O)C(=O)Nc2ccccc2)c2ccc3c(c2)OCO3)CC1 (stereo not given)	inconclusive: 2.45% [signal inhibitor]	
O=C(CSc1n[nH]c(=O)n1C1CC1)Nc1cc(Cl)ccc1Oc1ccccc1	inconclusive: -1.04% [signal inhibitor]	
Cc1cccc(-c2noc(CN(C(=O)COc3ccc(C(C)C)cc3)C(C)C)n2)c1	inconclusive: 1.21% [signal inhibitor]	
O=C(O)c1cc(C(=O)C(=O)c2cc(C(=O)O)c(O)c3ccccc23)c2ccccc2c1O	inactive: -0.0423% [at 11.4 µM, scaled: untreated 0%, proteasome inhibitor 100%]	
Cc1c(CC(=O)NCCc2ccccc2F)c(=O)oc2c(C)c3occ(C(C)(C)C)c3cc12	inconclusive: 1.63% [signal inhibitor]	
COc1cccc(N2CCN(C(=O)c3ccc4c(=O)n(CCc5ccccc5)c(=O)[nH]c4c3)CC2)c1	inconclusive: 6.18% [signal inhibitor]	
CCOc1ccc(OCC)c(NC(=O)CN2CCN(c3cccc(C)c3)C(C)C2)c1 (stereo not given)	inconclusive: 2.95% [signal inhibitor]	
COc1ccccc1CNS(=O)(=O)c1cc(C(=O)Nc2cccc(C(F)(F)F)c2)ccc1F	inactive: 0.173%	
CCc1ccc(S(=O)(=O)c2nnn3c2nc(N2CCC(C)CC2)c2cc(Cl)ccc23)cc1	inconclusive: 0.864% [signal inhibitor]	
COc1ccc(-c2cc(C(=O)NCc3cc(OC)c(OC)c(OC)c3)[nH]n2)cc1	inconclusive: 0.571% [signal inhibitor]	
Cc1cccc(OCC(=O)Nc2c(C)ccc3nsnc23)c1C	inactive: -4.77%	
Cc1ccc(Cl)c2c1N[C@@H](c1ccc(C(=O)O)cc1)[C@H]1CC=C[C@@H]21	inconclusive: 11.3% [signal inhibitor]	
CCOc1ccc(-c2nc(CSCC(=O)N3CCN(c4cccc(C(F)(F)F)c4)CC3)c(C)o2)cc1	inconclusive: 5.98% [signal inhibitor]	
Cc1cc2c3c(c1)C1(C(=O)N3C(C)(C)CC2C)C(C#N)=C(N)Oc2cc(O)ccc21 (stereo not given)	inconclusive: 6.67% [signal inhibitor]	
CCc1ccc(NC(=O)c2cc(C(C)=O)n3ccccc23)cc1	inconclusive: 10.7% [signal inhibitor]	
CC(C)c1ccc(C2N3CC4(C)CN2CC(c2ccccc2)(C3)C4=O)cc1 (stereo not given)	inconclusive: 0.956% [signal inhibitor]	
CCCc1nn2c(=O)cc(COC(=O)c3cccc(NC(=O)COc4ccc(F)cc4)c3)nc2s1	inconclusive: 7.8% [signal inhibitor]	

SMILES	IkBa stabilization activation	Potency
Clc1cccc(N2CCN(c3ncnc4c3nc3n4CCCCC3)CC2)c1	inconclusive: -3.42% [signal inhibitor]	
Cc1cccc(CNc2ncncc2-c2ccc(C(=O)N(C)C)cc2)c1	inactive: 1.53% [at 11.4 µM, scaled: untreated 0%, proteasome inhibitor 100%]	
CCCCN1C(=O)c2[nH]nc(-c3ccccc3O)c2C1c1cccc(OCc2ccccc2)c1 (stereo not given)	inconclusive: 0.109% [signal inhibitor]	
Cc1ccccc1NC(=O)c1ccc(F)c(S(=O)(=O)N(C)Cc2ccccc2)c1	inconclusive: 3.84% [signal inhibitor]	
COc1ccccc1C1C=C(c2ccc(F)cc2)Nc2nc(-c3ccc(Cl)cc3)nn21 (stereo not given)	inconclusive: 5.91% [signal inhibitor]	
COCCn1c(=O)c(-c2ccc(F)cc2)nc2cnc(Nc3cccc(OC)c3)nc21	inactive: -2.68% [at 11.4 µM, scaled: untreated 0%, proteasome inhibitor 100%]	
CCOc1ccc(CCNC(=O)CCc2c(C)nc3c4c(C)cc(C)nc4nn3c2C)cc1	inactive: 0.838%	
Cc1ccc2[nH]c(=O)c3cc(C(=O)N4CCN(c5ccccc5)CC4)sc3c2c1	inconclusive: 0.448% [signal inhibitor]	
CCCCCOc1ccc(CN2CCOCC2)cc1Cl	inactive: -0.149%	
COc1cccc(NC(=O)NCc2ccc3c(c2)CCN3C(=O)c2ccccc2)c1	inconclusive: 0.314% [signal inhibitor]	
Cc1cccc(C(=O)Nc2sc3c(c2C(=O)NCc2ccco2)CCCC3)c1		inconclusive: 20 µM [signal inhibitor, partial curve]
COc1cc(-c2noc(CN3CCN(c4ccccc4)CC3)n2)cc(OC)c1OC	inactive: 5.93%	
C[N+](C)(N)Cc1csc(-c2ccc(Cl)cc2)n1	inactive: 1.42% [at 11.4 µM, scaled: untreated 0%, proteasome inhibitor 100%]	
Cc1cn2c(=O)cc(COC(=O)c3cccc(NC(=O)COc4ccccc4Cl)c3)nc2s1	inactive: -1.03%	
CCOc1ccc(-n2c(Cc3ccccc3)nnc2SCc2nc(-c3ccccc3OC)no2)cc1	inconclusive: 2.02% [signal inhibitor]	
Cc1ccc(Cl)cc1N1CCN(C(=O)c2cnc(N3CCOCC3)c3ccccc23)CC1	inactive: 5.46%	
CN[C@@H]1[C@H](O)[C@H](NC)[C@@H]2O[C@]3(O)C(=O)C[C@@H](C)O[C@H]3O[C@@H]2[C@H]1O	inactive: 0.741% [at 11.4 µM, scaled: untreated 0%, proteasome inhibitor 100%]	
O=C=Nc1ccc(Cc2ccc(N=C=O)cc2)cc1	inactive: -0.493%	
O=C(Nc1cccs1)Nc1cc(C(F)(F)F)ccc1Cl	inconclusive: -2.45% [signal inhibitor]	
CCOC(=O)C1CCCN(c2nc(C)nc3c2oc2ccccc23)C1 (stereo not given)	inactive: -3.39%	
CCOC(=O)C1CCN(c2ncnc3c2c(-c2ccccc2)cn3-c2cccc(C)c2)CC1	inconclusive: 1.54% [signal inhibitor]	
